# Laboratory results reported in the supplement of paper PMC8728848.
# The other results are listed elsewhere or left out.
# B1: GS13455A-bfa-343-25-343 (Bacteroides fragilis) (protein)
# chain: KDEIQIVDQDTSWQMDNKYIEEDIREQLGIDPFTDLVYLGYYGNPYTQLEAINDLVNTTLVGKNELSFKVKVTKPYKEDIKVNLMKEDKLVTDFPEMAEGIPLFPSENCTFEGGVLKAGELETTVKLTLKDVEKLNNLSGYVMAIKLTMEGSHEHLAIARTRSSYFVKLNLSIRLDNIDSSNKKIEGKGFNKEISFKSDIRPDKLGSLNDGNFTANNWYTSNANNYLTIILPEKQSLKGFRLDTNTSPSGSYMLKSCRVMVETPDGNWVNHGVFDRKSMDGIAYISFKKPVECTKVRFENMMAFNGRFSVDVNEVTAFR
# Legend:
# Experiment in all cases: glycan array binding signal (z-score within array); higher = stronger binding
# Conditions in all cases: glycan notation: IUPAC condensed, linker removed
# [1] = molecular target: Gal(b1-4)GlcNAc(b1-2)Man(a1-6)[Man(a1-3)]Man(b1-4)GlcNAc(b1-4)GlcNAc
# Procedure, shortened: (§1)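 Negative Z-scores can be read as non-binding. The Z-score is calculated within each array and then averaged across arrays of one protein sequence at different concentrations or buffers and across linkers. Arrays, 3228 in all, were curated from the Consortium for Functional Glycomics database and kept only where the protein sequence was available.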
# [2] = molecular target: Gal(b1-4)GlcNAc(b1-2)[Gal(b1-4)GlcNAc(b1-4)]Man(a1-3)[Gal(b1-4)GlcNAc(b1-2)Man(a1-6)]Man(b1-4)GlcNAc(b1-4)GlcNAc
# Procedure, shortened: as §1
# [3] = molecular target: Gal(b1-4)GlcNAc(b1-2)[Gal(b1-4)GlcNAc(b1-4)]Man(a1-3)[Gal(b1-4)GlcNAc(b1-2)[Gal(b1-4)GlcNAc(b1-6)]Man(a1-6)]Man(b1-4)GlcNAc(b1-4)GlcNAc
# Procedure, shortened: as §1
# [4] = molecular target: Gal(b1-4)GlcNAc(b1-2)[Gal(b1-4)GlcNAc(b1-4)]Man(a1-3)[GlcNAc(b1-4)][Gal(b1-4)GlcNAc(b1-2)Man(a1-6)]Man(b1-4)GlcNAc(b1-4)GlcNAc
# Procedure, shortened: as §1
# [5] = molecular target: Gal(b1-4)GlcNAc(b1-2)[Gal(b1-4)GlcNAc(b1-4)]Man(a1-3)[GlcNAc(b1-4)][Gal(b1-4)GlcNAc(b1-2)[Gal(b1-4)GlcNAc(b1-6)]Man(a1-6)]Man(b1-4)GlcNAc(b1-4)GlcNAc
# Procedure, shortened: as §1
# [6] = molecular target: Gal(b1-4)GlcNAc(b1-2)[Gal(b1-4)GlcNAc(b1-6)]Man(a1-6)[Gal(b1-4)GlcNAc(b1-2)Man(a1-3)]Man(b1-4)GlcNAc(b1-4)GlcNAc
# Procedure, shortened: as §1
# [7] = molecular target: Gal(b1-4)GlcNAc(b1-2)[Gal(b1-4)GlcNAc(b1-6)]Man(a1-6)[Gal(b1-4)GlcNAc(b1-2)Man(a1-3)]Man(b1-4)GlcNAc(b1-4)[Fuc(a1-6)]GlcNAc
# Procedure, shortened: as §1
# [8] = molecular target: Gal(b1-4)GlcNAc(b1-2)[Gal(b1-4)GlcNAc(b1-6)]Man(a1-6)[GlcNAc(b1-4)][Gal(b1-4)GlcNAc(b1-2)Man(a1-3)]Man(b1-4)GlcNAc(b1-4)GlcNAc
# Procedure, shortened: as §1
# [9] = molecular target: Gal(b1-4)GlcNAc(b1-2)[Gal(b1-4)GlcNAc(b1-6)]Man(a1-6)[GlcNAc(b1-4)][Gal(b1-4)GlcNAc(b1-2)[Gal(b1-4)GlcNAc(b1-4)]Man(a1-3)]Man(b1-4)GlcNAc(b1-4)[Fuc(a1-6)]GlcNAc
# Procedure, shortened: as §1
# [10] = molecular target: Gal(b1-4)GlcNAc(b1-3)Gal(b1-3)GalNAc
# Procedure, shortened: as §1
# [11] = molecular target: Gal(b1-4)GlcNAc(b1-3)Gal(b1-3)GlcNAc
# Procedure, shortened: as §1
# [12] = molecular target: Gal(b1-4)GlcNAc(b1-3)Gal(b1-4)Glc
# Procedure, shortened: as §1
# [13] = molecular target: Gal(b1-4)GlcNAc(b1-3)Gal(b1-4)GlcNAc
# Procedure, shortened: as §1
# [14] = molecular target: Gal(b1-4)GlcNAc(b1-3)Gal(b1-4)GlcNAc(b1-2)Man(a1-3)[Gal(b1-4)GlcNAc(b1-3)Gal(b1-4)GlcNAc(b1-2)Man(a1-6)]Man(b1-4)GlcNAc(b1-4)GlcNAc
# Procedure, shortened: as §1
# [15] = molecular target: Gal(b1-4)GlcNAc(b1-3)Gal(b1-4)GlcNAc(b1-2)Man(a1-3)[Gal(b1-4)GlcNAc(b1-3)Gal(b1-4)GlcNAc(b1-2)Man(a1-6)]Man(b1-4)GlcNAc(b1-4)[Fuc(a1-6)]GlcNAc
# Procedure, shortened: as §1
# [16] = molecular target: Gal(b1-4)GlcNAc(b1-3)Gal(b1-4)GlcNAc(b1-2)[Gal(b1-4)GlcNAc(b1-3)Gal(b1-4)GlcNAc(b1-6)]Man(a1-6)[Gal(b1-4)GlcNAc(b1-3)Gal(b1-4)GlcNAc(b1-2)Man(a1-3)]Man(b1-4)GlcNAc(b1-4)GlcNAc
# Procedure, shortened: as §1
# [17] = molecular target: Gal(b1-4)GlcNAc(b1-3)Gal(b1-4)GlcNAc(b1-2)[Gal(b1-4)GlcNAc(b1-3)Gal(b1-4)GlcNAc(b1-6)]Man(a1-6)[Gal(b1-4)GlcNAc(b1-3)Gal(b1-4)GlcNAc(b1-2)Man(a1-3)]Man(b1-4)GlcNAc(b1-4)[Fuc(a1-6)]GlcNAc
# Procedure, shortened: as §1
# [18] = molecular target: Gal(b1-4)GlcNAc(b1-3)Gal(b1-4)GlcNAc(b1-3)Gal(b1-4)GlcNAc
# Procedure, shortened: as §1
binder,measurement,setting,value
B1,glycan array binding signal (z-score),[1],-0.145
same,glycan array binding signal (z-score),[2],0.247
same,glycan array binding signal (z-score),[3],-1.14
same,glycan array binding signal (z-score),[4],0.787
same,glycan array binding signal (z-score),[5],-0.451
same,glycan array binding signal (z-score),[6],-0.11
same,glycan array binding signal (z-score),[7],0.927
same,glycan array binding signal (z-score),[8],-0.409
same,glycan array binding signal (z-score),[9],-0.04
same,glycan array binding signal (z-score),[10],0.107
same,glycan array binding signal (z-score),[11],-0.351
same,glycan array binding signal (z-score),[12],-0.274
same,glycan array binding signal (z-score),[13],-0.356
same,glycan array binding signal (z-score),[14],0.241
same,glycan array binding signal (z-score),[15],-0.476
same,glycan array binding signal (z-score),[16],0.131
same,glycan array binding signal (z-score),[17],1.19
same,glycan array binding signal (z-score),[18],0.432
